Measured values from the supplement of paper PMC9446081.
Screen size: about 39,000 compounds; about 220 (0.56%) showed activity. The list shows a part of the results.

tested on: Escherichia coli K-12 BW25113; experiment: relative growth (OD600 normalised to plate interquartile mean) (fraction); higher = less growth inhibition, active = 0.2 or less; settings: 50 µM; LB; incubation time: overnight (16-24 h)
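Also: static incubation at 37 °C against the wild-type strain, values averaged over two biological replicates.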

Row | Structure (SMILES) | relative growth
1 | Cc1ncc(CO)c(/C=N/O)c1O | inactive: 1
2 | C[C@@H]1CN([C@H](C)CO)C(=O)Cc2cc(NC(=O)Nc3ccc4c(c3)OCO4)ccc2O[C@@H]1CN(C)C(=O)Nc1ccc(C(F)(F)F)cc1 | inactive: 1.04
3 | COCCOC(=O)N1C(=O)[C@@]2(c3cc(C#CCC(C(=O)OC)C(=O)OC)ccc31)[C@H](C(=O)N1CCCCCCC1)[C@H]1C(=O)O[C@H](c3ccccc3)[C@H](c3ccccc3)N1[C@@H]2c1ccc(OCCO)cc1 | inactive: 1.03
4 | O=C(c1ccc(S(=O)(=O)N2CCOCC2)o1)N1CCC(O)CC1 | inactive: 1
5 | O=C(NCc1ccccc1)C1=C[C@H](c2ccc3c(c2)Cc2ccccc2-3)C[C@H](OCc2ccc(CO)cc2)O1 | inactive: 1.01
6 | CS(=O)(=O)CS(=O)(=O)C1=C(N2CCOCC2)C2CCN1CC2 | inactive: 1
7 | CO[C@H]1CN(C)C(=O)c2cc(NS(=O)(=O)CC(F)(F)F)ccc2OC[C@H](C)N(Cc2cccnc2)C[C@H]1C | inactive: 0.999
8 | C[C@H]1CN([C@@H](C)CO)C(=O)c2cc(NC(=O)c3ccncc3)ccc2O[C@@H]1CN(C)Cc1ccc(Oc2ccccc2)cc1 | inactive: 0.925
9 | C[C@@H]1CN([C@H](C)CO)C(=O)Cc2cc(NC(=O)C3CC3)ccc2O[C@H]1CN(C)S(=O)(=O)c1ccc(F)cc1 | inactive: 0.99
10 | Cc1ccc(S(=O)(=O)Nc2ccc3c(c2)C(=O)N([C@H](C)CO)C[C@@H](C)[C@H](CN(C)C(=O)Cc2ccccc2)OCCCC[C@@H](C)O3)cc1 | inactive: 1.01
11 | O=C1CCC(C(=O)O)CC1 | inactive: 0.983
12 | COc1ccc(NC(=O)N(C)C[C@H]2Oc3ccc(NS(=O)(=O)c4cn(C)cn4)cc3C(=O)N([C@H](C)CO)C[C@H]2C)cc1 | inactive: 0.984
13 | C[C@H]1CN([C@@H](C)CO)C(=O)c2cccc(NC(=O)Nc3ccc4c(c3)OCO4)c2O[C@@H]1CN(C)Cc1ccc(Oc2ccccc2)cc1 | inactive: 1.01
14 | Cc1noc(C)c1S(=O)(=O)N(C)C[C@H]1Oc2ccc(NC(=O)Cc3cn(C)c4ccccc34)cc2CC(=O)N([C@@H](C)CO)C[C@@H]1C | inactive: 0.896
15 | C[C@@H]1CCCCO[C@H](CN(C)CC2CC2)[C@H](C)CN([C@H](C)CO)C(=O)c2cc(NC(=O)Nc3ccc(C(F)(F)F)cc3)ccc2O1 | inactive: 1.01
16 | N=C(N=C(N)N)Nc1cc(-c2cccs2)n[nH]1 | inactive: 0.931
17 | Cn1c(=O)c2c(nc(N3CCOCC3)n2CCCN)n(C)c1=O | inactive: 0.983
18 | O=C(Cc1ccncc1)NCC[C@@H]1CC[C@H](NC(=O)C2CCOCC2)[C@H](CO)O1 | inactive: 1.03
19 | CCCN(C)C[C@H]1Oc2cc(C#Cc3cccc(OC)c3)ccc2S(=O)(=O)N([C@@H](C)CO)C[C@H]1C | inactive: 1.01
20 | CN1C(=O)c2cc(NC(=O)c3cnccn3)ccc2OC[C@H]2O[C@@H](CC(=O)Nc3cc(F)ccc3F)CC[C@@H]21 | inactive: 1

Row | Structure (SMILES) | relative growth
21 | Cc1ccc(S(=O)(=O)Nc2ccc3c(c2)C(=O)N([C@H](C)CO)C[C@H](C)[C@@H](CN(C)S(=O)(=O)c2ccc(F)cc2)OCCCC[C@H](C)O3)cc1 | inactive: 1.03
22 | COc1ccccc1C(=O)Nc1ccc2c(c1)C(=O)N(C)[C@@H]1CC[C@@H](CC(=O)NCc3ccc(Cl)c(Cl)c3)O[C@H]1CO2 | inactive: 1.08
23 | Cc1noc(C)c1S(=O)(=O)Nc1cccc2c1O[C@H](CN(C)C(=O)Nc1ccccc1)[C@H](C)CN([C@H](C)CO)C2=O | inactive: 1.02
24 | C[C@H]1CN([C@@H](C)CO)C(=O)c2cc(C#Cc3ccccc3F)cnc2O[C@H]1CN(C)C(=O)c1ccc2c(c1)OCO2 | inactive: 0.991
25 | CCCCC[C@H](O)/C=C/[C@H]1[C@H](O)CC(=O)[C@@H]1C/C=C\CCCC(=O)O | inactive: 0.991
26 | C=CC[C@@H](CC(=O)N[C@@H](CO)Cc1ccccc1)C(=O)NCCOC(=O)[C@@H](CC=C)CC(=O)OC(C)(C)C | inactive: 1.01
27 | CO[C@@H]1CN(C)C(=O)c2cc(NC(=O)C3CCOCC3)ccc2OC[C@@H](C)N(Cc2cccnc2)C[C@@H]1C | inactive: 0.991
28 | CN(CCOP(=O)(O)O)C(=N)N | inactive: 1.01
29 | C/C=C/c1ccc2c(c1)O[C@@H](CN(C)C(=O)c1ccc3c(c1)OCO3)[C@@H](C)CN([C@@H](C)CO)S2(=O)=O | inactive: 0.985
30 | C[C@@H]1COC(=O)[C@@H](NC(=O)OCC2c3ccccc3-c3ccccc32)CC=CC[C@@H](CC(=O)NCCO)C(=O)N1 | inactive: 1.04
31 | COC(=O)Cc1c(C)[nH]c2ncnn2c1=O | inactive: 1
32 | COc1cc2c(cc1OC)CN(C(=O)[C@@H]1[C@H]3C(=O)O[C@H](c4ccccc4)[C@H](c4ccccc4)N3[C@H](c3ccc(OCCO)cc3)[C@@]13C(=O)Nc1ccc(C#CC4=CCCCC4)cc13)CC2 | inactive: 1.07
33 | C[C@H]1CN([C@@H](C)CO)S(=O)(=O)c2ccc(C#CC3(O)CCCC3)cc2O[C@H]1CN(C)C(=O)Cc1cccnc1 | inactive: 0.927
34 | C[C@H]1CN([C@@H](C)CO)C(=O)Cc2cc(NC(=O)Cn3cnnn3)ccc2O[C@H]1CN(C)S(C)(=O)=O | inactive: 0.989
35 | Cc1noc(C)c1NC(=O)N(C)C[C@H]1Oc2ccc(NC(=O)Nc3cccc4ccccc34)cc2C(=O)N([C@H](C)CO)C[C@@H]1C | inactive: 1.01
36 | CC(C)NC(=O)Nc1cccc2c1O[C@@H](CN(C)Cc1ccc(-c3ccccc3)cc1)[C@@H](C)CN([C@@H](C)CO)C2=O | inactive: 1.02
37 | CCCN(C)C[C@H]1OCCCC[C@H](C)Oc2ccc(NC(=O)C3CCCCC3)cc2C(=O)N([C@H](C)CO)C[C@H]1C | inactive: 0.97
38 | CN1CCN(C(=O)C[C@H]2C=C[C@@H](NC(=O)c3ccc4c(c3)OCO4)[C@H](CO)O2)CC1 | inactive: 0.998
39 | COc1ccc(S(=O)(=O)N(C)C[C@H]2OCc3cnnn3CCCC(=O)N([C@H](C)CO)C[C@H]2C)cc1 | inactive: 0.995
40 | C[C@H](CO)N1C[C@H](C)[C@H](CN(C)C(=O)Nc2ccc3c(c2)OCO3)OCc2cn(nn2)CCCC1=O | inactive: 1.02
